Results are given in words; binding and its absence hold for the method and conditions named. Binding seen in cells or lysates may run through a third protein. Some entries that bind do so weakly or less than the wild type. For some assays here: Sequences can lack the tags named with a protein. One block for each substance: values may come before it.
What was measured:
GST-USP10 C424A = GST-USP10 C424A (UniProt Q14694); experiment: pull-down; unubiquitinated or ubiquitinated His-RUNX1 incubated with purified GST-USP10 C424A coupled to glutathione-Sepharose beads, cell-free; retained proteins immunoblotted
Flag-tagged USP4 = target: T1, Flag-tagged USP4 (UniProt Q13107); experiment: co-IP; Flag-tagged DUBs expressed in HEK293T cells; lysates precipitated with Flag beads, blotted for RUNX1 and Flag
T1 sequence: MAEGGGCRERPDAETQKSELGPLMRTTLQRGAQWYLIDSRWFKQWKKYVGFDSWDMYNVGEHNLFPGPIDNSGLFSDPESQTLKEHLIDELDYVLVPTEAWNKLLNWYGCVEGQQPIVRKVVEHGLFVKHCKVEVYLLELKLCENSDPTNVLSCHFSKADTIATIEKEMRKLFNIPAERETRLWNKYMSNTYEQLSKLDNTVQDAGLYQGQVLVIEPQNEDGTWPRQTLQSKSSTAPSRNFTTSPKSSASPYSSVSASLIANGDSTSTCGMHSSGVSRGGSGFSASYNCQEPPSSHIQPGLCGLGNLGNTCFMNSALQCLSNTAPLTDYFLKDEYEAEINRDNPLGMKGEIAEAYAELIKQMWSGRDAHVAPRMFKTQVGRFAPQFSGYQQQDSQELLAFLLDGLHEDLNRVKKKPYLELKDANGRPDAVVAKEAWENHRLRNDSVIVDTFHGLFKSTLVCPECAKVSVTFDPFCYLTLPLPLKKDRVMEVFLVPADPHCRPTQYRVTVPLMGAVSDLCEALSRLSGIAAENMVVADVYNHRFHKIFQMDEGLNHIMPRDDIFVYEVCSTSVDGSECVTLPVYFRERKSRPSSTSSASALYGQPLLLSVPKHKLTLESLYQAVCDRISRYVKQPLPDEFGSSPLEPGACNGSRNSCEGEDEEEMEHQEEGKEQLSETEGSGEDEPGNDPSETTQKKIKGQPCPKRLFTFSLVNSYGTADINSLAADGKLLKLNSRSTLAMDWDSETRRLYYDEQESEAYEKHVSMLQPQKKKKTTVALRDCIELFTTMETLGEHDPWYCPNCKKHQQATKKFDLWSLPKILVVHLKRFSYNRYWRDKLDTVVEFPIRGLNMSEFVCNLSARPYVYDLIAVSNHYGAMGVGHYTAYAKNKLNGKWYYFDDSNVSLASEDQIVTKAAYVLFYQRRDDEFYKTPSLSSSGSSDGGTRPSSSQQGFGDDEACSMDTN

Protein sequences, listed by entry. Tags and fused reporters are not part of them. Lines headed by an entry give the natural chain unless they say otherwise; changes in a name come on top. Chains listed by the source or under a name are the forms on record and can include a tag or linker.
UniProt Q14694: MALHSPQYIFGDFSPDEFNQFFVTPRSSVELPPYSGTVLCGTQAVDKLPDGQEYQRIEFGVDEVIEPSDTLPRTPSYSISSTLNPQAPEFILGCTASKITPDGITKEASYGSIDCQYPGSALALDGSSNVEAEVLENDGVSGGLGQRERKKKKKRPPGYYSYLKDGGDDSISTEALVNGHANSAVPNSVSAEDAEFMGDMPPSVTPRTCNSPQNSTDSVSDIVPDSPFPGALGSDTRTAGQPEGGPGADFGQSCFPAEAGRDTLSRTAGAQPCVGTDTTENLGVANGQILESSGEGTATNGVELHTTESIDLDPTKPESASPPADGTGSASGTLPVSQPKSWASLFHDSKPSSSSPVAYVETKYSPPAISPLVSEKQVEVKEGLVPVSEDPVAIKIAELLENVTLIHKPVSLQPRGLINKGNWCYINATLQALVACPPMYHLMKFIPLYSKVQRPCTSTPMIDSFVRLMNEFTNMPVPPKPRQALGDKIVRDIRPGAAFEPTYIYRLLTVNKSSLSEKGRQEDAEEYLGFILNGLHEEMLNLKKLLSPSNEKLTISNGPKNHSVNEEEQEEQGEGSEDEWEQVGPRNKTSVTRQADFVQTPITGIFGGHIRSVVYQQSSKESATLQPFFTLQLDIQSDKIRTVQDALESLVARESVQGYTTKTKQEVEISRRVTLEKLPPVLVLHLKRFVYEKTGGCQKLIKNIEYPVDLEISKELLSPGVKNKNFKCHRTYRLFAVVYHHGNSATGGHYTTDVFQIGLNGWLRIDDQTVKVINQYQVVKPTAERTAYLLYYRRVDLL
UniProt Q93009: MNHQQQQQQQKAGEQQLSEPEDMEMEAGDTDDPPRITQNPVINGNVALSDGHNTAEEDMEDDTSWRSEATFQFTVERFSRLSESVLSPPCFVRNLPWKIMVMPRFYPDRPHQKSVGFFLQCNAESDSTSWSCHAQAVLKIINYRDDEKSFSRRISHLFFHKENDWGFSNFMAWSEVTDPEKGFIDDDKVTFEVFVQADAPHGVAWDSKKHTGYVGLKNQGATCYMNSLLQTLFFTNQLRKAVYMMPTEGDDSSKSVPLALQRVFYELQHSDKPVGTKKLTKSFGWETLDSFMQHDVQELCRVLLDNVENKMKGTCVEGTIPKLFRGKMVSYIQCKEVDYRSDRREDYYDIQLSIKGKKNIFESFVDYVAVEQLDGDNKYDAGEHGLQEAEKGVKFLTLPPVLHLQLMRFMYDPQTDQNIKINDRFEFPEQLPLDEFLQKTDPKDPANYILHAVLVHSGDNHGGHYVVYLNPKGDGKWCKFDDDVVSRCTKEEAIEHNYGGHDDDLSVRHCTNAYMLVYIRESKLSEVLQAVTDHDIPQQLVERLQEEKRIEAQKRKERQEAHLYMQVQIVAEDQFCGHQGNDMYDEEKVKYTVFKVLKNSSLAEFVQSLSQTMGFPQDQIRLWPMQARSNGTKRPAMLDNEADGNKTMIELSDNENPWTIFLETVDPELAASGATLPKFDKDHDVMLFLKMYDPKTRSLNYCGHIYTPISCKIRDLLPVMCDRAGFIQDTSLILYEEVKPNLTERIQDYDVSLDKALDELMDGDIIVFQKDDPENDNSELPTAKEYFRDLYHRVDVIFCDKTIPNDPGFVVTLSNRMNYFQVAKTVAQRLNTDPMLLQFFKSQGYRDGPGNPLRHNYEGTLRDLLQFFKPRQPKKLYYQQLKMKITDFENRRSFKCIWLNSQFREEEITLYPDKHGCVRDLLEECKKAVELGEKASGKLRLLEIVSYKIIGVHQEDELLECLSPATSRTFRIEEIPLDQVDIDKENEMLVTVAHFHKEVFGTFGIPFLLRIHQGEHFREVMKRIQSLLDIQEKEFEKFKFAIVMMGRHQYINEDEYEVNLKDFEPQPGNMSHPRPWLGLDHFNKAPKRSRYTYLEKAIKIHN
UniProt Q01196: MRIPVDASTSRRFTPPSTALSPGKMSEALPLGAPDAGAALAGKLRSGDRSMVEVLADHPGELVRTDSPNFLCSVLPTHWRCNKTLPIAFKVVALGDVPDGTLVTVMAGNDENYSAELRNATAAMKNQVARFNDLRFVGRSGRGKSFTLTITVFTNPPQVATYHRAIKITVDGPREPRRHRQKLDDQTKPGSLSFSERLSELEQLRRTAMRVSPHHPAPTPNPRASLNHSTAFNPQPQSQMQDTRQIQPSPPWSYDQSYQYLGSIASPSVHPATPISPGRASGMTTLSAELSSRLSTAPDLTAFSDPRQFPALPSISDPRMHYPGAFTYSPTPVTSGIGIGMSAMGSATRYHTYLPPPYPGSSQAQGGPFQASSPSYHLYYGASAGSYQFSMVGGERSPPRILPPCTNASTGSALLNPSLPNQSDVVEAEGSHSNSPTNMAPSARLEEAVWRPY
His-tagged full-length (FL) RUNX1 (Q01196-8, form named): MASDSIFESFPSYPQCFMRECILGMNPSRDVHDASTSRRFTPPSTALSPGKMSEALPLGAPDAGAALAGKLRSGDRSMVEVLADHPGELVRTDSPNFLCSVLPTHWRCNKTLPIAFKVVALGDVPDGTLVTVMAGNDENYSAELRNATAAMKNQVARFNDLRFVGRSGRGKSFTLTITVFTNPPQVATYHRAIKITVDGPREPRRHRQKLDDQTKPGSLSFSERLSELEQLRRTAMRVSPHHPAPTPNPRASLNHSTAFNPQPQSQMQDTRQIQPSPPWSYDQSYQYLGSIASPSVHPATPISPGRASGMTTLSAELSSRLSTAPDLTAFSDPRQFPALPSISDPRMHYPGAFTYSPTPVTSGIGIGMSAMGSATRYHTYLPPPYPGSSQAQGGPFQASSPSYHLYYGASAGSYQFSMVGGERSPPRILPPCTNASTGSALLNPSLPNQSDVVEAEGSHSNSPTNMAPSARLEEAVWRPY

[1] = target: Flag-tagged full-length (FL) USP10, wild type (UniProt Q14694); experiment: as above
Flag-tagged USP36 = target: T2, Flag-tagged USP36 (UniProt Q9P275); experiment: as above
T2 sequence: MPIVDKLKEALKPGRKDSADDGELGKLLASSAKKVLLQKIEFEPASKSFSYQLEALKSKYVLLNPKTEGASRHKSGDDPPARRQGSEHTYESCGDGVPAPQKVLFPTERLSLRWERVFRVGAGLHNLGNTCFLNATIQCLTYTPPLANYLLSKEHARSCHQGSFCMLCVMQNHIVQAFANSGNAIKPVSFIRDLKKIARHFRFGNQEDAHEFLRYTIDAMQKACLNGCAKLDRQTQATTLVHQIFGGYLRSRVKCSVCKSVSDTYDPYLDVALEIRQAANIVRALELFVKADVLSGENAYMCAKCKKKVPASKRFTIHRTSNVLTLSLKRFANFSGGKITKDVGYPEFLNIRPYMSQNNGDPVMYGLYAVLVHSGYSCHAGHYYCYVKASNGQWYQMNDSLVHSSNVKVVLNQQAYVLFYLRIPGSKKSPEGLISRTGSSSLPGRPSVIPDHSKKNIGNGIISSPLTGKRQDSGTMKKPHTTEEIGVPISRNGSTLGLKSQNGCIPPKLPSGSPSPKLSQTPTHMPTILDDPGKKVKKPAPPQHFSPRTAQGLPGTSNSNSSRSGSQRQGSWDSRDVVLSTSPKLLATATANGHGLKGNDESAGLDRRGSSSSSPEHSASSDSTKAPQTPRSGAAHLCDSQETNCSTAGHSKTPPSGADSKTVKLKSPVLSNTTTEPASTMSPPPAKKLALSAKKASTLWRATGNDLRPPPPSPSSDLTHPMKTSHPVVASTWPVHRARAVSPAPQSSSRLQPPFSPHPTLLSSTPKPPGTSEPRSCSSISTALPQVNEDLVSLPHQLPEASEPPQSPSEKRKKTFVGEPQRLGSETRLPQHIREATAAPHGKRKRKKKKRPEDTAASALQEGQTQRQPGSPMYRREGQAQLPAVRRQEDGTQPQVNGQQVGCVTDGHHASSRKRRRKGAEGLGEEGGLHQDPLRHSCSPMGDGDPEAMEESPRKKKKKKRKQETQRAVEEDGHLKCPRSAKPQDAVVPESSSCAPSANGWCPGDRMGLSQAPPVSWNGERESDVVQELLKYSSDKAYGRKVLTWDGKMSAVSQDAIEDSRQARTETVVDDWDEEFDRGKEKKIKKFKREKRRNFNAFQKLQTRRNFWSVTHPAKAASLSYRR

Flag-tagged USP7 = Flag-tagged USP7 (UniProt Q93009); experiment: as above
[2] = target: USP10, endogenous in LN229 and GBM2 cells (human (endogenous in LN229 and GBM2)) (UniProt Q14694); experiment: co-IP; endogenous USP10 and RUNX1 in LN229 and GBM2 cells
[3] = target: Flag-tagged full-length (FL) USP10, wild type (UniProt Q14694); experiment: co-IP; His-RUNX1 and Flag-USP10 (full length, C424A or deletion mutants) in HEK293T cells; NETN buffer, protein A/G agarose beads, 4 °C, four washes
[4] = target: Flag-tagged USP10 C424A (dominant negative form that lost its DUB activity) (UniProt Q14694); experiment: as above

binding (GST-USP10 C424A): binds
Substance: His-RUNX1, unubiquitinated or ubiquitinated, as used under cell-free conditions (from UniProt Q01196-8 1-480)

binding (Flag-tagged USP4): no binding
binding [1]: binds
binding (Flag-tagged USP36): no binding
binding (Flag-tagged USP7): no binding
Substance: RUNX1 (Runt-related transcription factor 1), endogenous in HEK293T cells (from UniProt Q01196 1-453)

binding [2]: binds
Substance: RUNX1, endogenous in LN229 and GBM2 cells (from UniProt Q01196 1-453)

binding [3]: binds
binding [4]: binds
Substance: His-tagged full-length (FL) RUNX1 (from UniProt Q01196-8 1-480)

Source: paper PMC10033651
